About 65 (0.1%) of roughly 45,000 compounds were called active. The call rests on the fitted dose curve; in most records, active means well fitted activation curve with a large enough effect; inconclusive means small, poorly fitted or top-dose-only effect; inactive means no such curve, though single readings can be large or run the other way. The list shows a part of the results.
biological target: Galactocerebrosidase (Homo sapiens) (UniProt P54803); experiment: A Novel Cell-Based Assay to Identify Small Molecules for B -Galactocerebrosidase; conditions: 145M-Twi-hGALC-G270D cells (Twitcher mouse brain line with human GALC G270D), HMU-beta-Gal fluorescence, 48 h; series mostly up to 57.5 µM; activation: at the top concentration; further: 0% is about no effect; nearly all actives have a fitted effect of over 65% in size
Sequence of UniProt P54803 (P54803 whole entry, looked up): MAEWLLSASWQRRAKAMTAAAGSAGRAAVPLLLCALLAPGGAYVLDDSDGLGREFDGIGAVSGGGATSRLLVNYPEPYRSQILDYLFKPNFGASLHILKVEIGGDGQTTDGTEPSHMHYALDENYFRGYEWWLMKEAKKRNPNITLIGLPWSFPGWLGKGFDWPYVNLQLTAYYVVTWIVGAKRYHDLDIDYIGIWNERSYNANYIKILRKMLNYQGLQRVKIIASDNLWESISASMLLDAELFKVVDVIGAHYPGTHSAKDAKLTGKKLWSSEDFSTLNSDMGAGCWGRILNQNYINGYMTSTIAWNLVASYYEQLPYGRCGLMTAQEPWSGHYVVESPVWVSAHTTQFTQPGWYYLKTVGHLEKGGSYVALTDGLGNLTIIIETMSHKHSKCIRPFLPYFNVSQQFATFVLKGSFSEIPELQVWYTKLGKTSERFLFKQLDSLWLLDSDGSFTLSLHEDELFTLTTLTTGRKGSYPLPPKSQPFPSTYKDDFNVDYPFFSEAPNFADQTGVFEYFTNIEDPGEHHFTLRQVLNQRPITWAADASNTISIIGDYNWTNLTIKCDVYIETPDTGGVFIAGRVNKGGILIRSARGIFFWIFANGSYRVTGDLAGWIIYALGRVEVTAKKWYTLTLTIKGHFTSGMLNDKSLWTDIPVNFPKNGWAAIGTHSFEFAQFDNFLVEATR
Method in brief: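 Mutant human GALC (G270D), stably expressed in a Twitcher mouse brain cell line lacking endogenous GALC, is measured in live-treated cells via 6-hexadecanoylamino-4-methylumbelliferyl-β-galactoside hydrolysis (0.1 mM final, pH 5.2) with fluorescent detection.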

Row | Structure (SMILES) | activation
1 | COc1ccc(N2CCN(C(CNC(=O)c3cccc(OC)c3)c3cccnc3)CC2)cc1 (stereo unspecified) | inactive: -14.4%
2 | NC(N)=NC(=O)c1nc(Cl)c(N)nc1N | inactive: -13.8%
3 | CCc1ccc(CNc2ncnc3onc(-c4ccc(Cl)cc4)c23)cc1 | inactive: 0.958%
4 | CCOc1ccc(CN(C(=O)c2cc(=O)c3cc(Cl)ccc3o2)C2CCS(=O)(=O)C2)cc1 (stereo unspecified) | inactive: -16.5%
5 | CCCCOC(=O)c1c(C)oc2ccc(NS(=O)(=O)c3ccc(F)cc3C)cc12 | inactive: -25.9%
6 | Cn1c(C(=O)N2CCCC(C(=O)N3CCN(c4ccccc4)CC3)C2)cc2sccc21 (stereo unspecified) | inactive: -10.3%
7 | COc1ccc(NC(=O)Cn2c(=O)n(-c3ccc(C)c(C)c3)c(=O)c3c4c(sc32)CCCCC4)cc1Cl | inactive: -33.2%
8 | CCc1ccc(NC(=O)CSc2cn(CC(=O)N3CCOCC3)c3ccccc23)cc1 | inactive: -4.1%
9 | CCN(CC)C(=O)C1CCN(c2cc(C)nc3c(-c4ccc(OC)c(OC)c4)c(C)nn23)CC1 | inactive: -6.47%
10 | COc1ccccc1NC(=O)C1=C(C)Nc2c(C(=O)Nc3cccc(C)c3)cnn2C1c1ccccc1C (stereo unspecified) | inactive: -8.87%
11 | O=C(CCn1c(=O)c2cccn2c2cccnc21)NCc1ccc(Cl)cc1 | inactive: 6.4%
12 | COC(=O)c1ccc(NC(=O)C(=O)NCCc2sc3nc(-c4ccc(OC)cc4)nn3c2C)cc1 | inactive: -6.02%
13 | COc1cc2c(cc1OC)n(CC(=O)Nc1ccccc1)c(=O)n1nc(-c3ccccc3)nc21 | inactive: -4.64%
14 | Cc1ccc(/C=C/c2nc3ccccc3n2S(=O)(=O)c2cccc(Cl)c2)cc1 | inactive: -5.72%
15 | CC(CC(=O)NCc1ccc(Cl)cc1Cl)CC1=NS(=O)(=O)c2ccccc2N1 (stereo unspecified) | inactive: -4.32%
16 | O=c1oc2c(O)c(O)cc3c(=O)oc4c(O)c(O)cc1c4c23 | inactive: -15.7% [at 23.8 µM]
17 | COc1ccc(CCNC(=O)c2cc(=O)c3c(C)cc(C)cc3o2)cc1OC | inactive: -11.6%
18 | Cc1ccc(Nc2nc3c(S(=O)(=O)c4ccccc4)nnn3c3ccc(Cl)cc23)c(C)c1 | inactive: -15.4%
19 | COc1cc2nc(Nc3ccc(C)c(C)c3)nc(N)c2cc1OC | inactive: -16.5%
20 | Cc1cccc(OC(=O)c2nc(SCc3ccccc3F)ncc2Cl)c1 | inactive: 20.4%
21 | CCOC(=O)c1ccc(NC(=O)Cn2cc(C(=O)c3cccs3)c3ccccc32)cc1 | inactive: -15.7%
22 | O=S(=O)(c1ccccc1)N1CCC(c2ccncc2)CC1 | inactive: 2.45%
23 | Cc1nn(CC(=O)NCCc2ccccc2Cl)c(=O)c2nn(-c3ccccc3)c(C)c12 | inactive: -13.2%
24 | COc1ccc(CNCc2c(C(=O)O)c(C)n(Cc3ccc(Cl)cc3)c2C)c(OC)c1 | inactive: -12.5%
25 | CC(=O)c1cc(-c2ccc(F)cc2)n(CCC(=O)Nc2nc3c(C)cccc3s2)c1C | inactive: -11.2%
26 | Cc1ccc2c(c1)c1c(c(=O)n(-c3ccccc3C)c(=O)n1CC(=O)NCCC1=CCCCC1)n2C | inactive: -4.73%

— PubChem BioAssay AID1159614 (National Center for Advancing Translational Sciences (NCATS), 2016)
